± gives the standard deviation of the averaged measurements. This is one part of the list.

This test deals with PfAP2-LT AP2 domain (GST-tagged). Description: gcPBM binding intensity (ln(normalized median fluorescence intensity)); higher = stronger DNA binding. Summed up: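 Probes on an Agilent 4 × 180k array were primer-extended, double-stranded and 36 bp long, taken from intergenic genomic regions, with negative controls added. GST-tagged P. falciparum DNA-binding domains from E. coli, about 25 μg on average, were applied to the array for 1 h in 1× PBS containing 1% milk, 0.2 mg/ml BSA, 0.5% salmon testes DNA and 0.03% Triton X-100. Binding intensity, obtained after Alexa488 anti-GST antibody detection and a 488 nm scan, is the highest Masliner-normalised natural-log median intensity across replicate spots of either probe orientation.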
In the case of TTTCCCTCAAATAAAGTGCATTATGATTTTAATTTA, the “gcPBM binding intensity (ln)” value was 8.44 ± 0.39.
Next, “AAATTATATATGATGTGTACATAAATATATACACAT [XGTACX_site8761]”: 8.88 ± 0.35; “ATGTATTTATTTTAACGTACAAGATATTATTATTAT [XGTACX_site4609]”: 8.7 ± 0.38; “AAATTATAATATAATACACACATAAAAAAAAAAAAA [CACACA_site7]”: 8.93 ± 0.47.
The result for “ATATGGCATATTTGTATTATACATACATATGTATCT [TGCATGCA_negctrl_site562]” reads 9.21 ± 0.54.
Regarding “TATATTTAGAGAGAGACACACAAAGGGACTTACACA [CACACA_site2545]”, the “gcPBM binding intensity (ln)” value came out at 8.96 ± 0.5.
The result for “TTATTATTCAAGAGGAGTACATTATGTGTATAATAT [XGTACX_site4995]” reads 8.71 ± 0.36.
Turning to “TGTGTATATCGATAAAGTACATTTGAAAAGTGACTT [XGTACX_site6957]”, the “gcPBM binding intensity (ln)” value was found to be 8.84 ± 0.32.
Next, “GTAATATGTATCCATACACACATACAGTTTATTTGC [CACACA_site6540]”: 9.21 ± 0.4; “TCCACTTAACTCAATTGTACAAAAATAAAAATTAAA [XGTACX_site855]”: 8.34 ± 0.51.
The result for TTTTATGCGCAATAAGTGCATTTAAAATATATATAT reads 8.54 ± 0.38.
As for “ATAATATATATATATATATTATCAAATATATATATA [GTGCAC_negctrl_site346]”, the “gcPBM binding intensity (ln)” value amounted to 8.64 ± 0.3.
The result for “ATACGAAGAAATGTTCATTTATTTCGAACATTTAAT [CACACA_negctrl_site1481]” reads 8.56 ± 0.41; that for “TTTTTCATAAAACACACACACAAAAATAATGTGGAA [CACACA_site3687]”, 9.22 ± 0.36.
The result for “AATATAATATAATATAGTACGTAAAAATATTATACA [XGTACX_site2170]” reads 9.01 ± 0.46; that for “AAAAAAAACGGACACACACACATTCAATATAAAACA [CACACA_site4189]”, 9.99 ± 0.3; that for “GTATTAATATATAATTGTACTTTTTTTTTTTTTTTT [XGTACX_site4369]”, 8.56 ± 0.55.
Next, “ATCACCAAATGGGCTATACAACAATGAGAAATGGTA [CACACA_negctrl_site48]”: 8.88 ± 0.49; “TTTTTATATTTTACATGTACATAAATATATTATATA [XGTACX_site958]”: 8.75 ± 0.47; “AATAATGAATTGAAATGTACATATTTTTATTAATAC [XGTACX_site8899]”: 8.64 ± 0.48.
In the case of “ATATAAAAATATAATACACACATAAAATATATTATA [CACACA_site969]”, the “gcPBM binding intensity (ln)” value was found to be 8.98 ± 0.39.
The result for “TATATAAGGAAATATTGTACTTTTATATTTATATTA [XGTACX_site3814]” reads 8.4 ± 0.41; that for “TTTCTTTTTATATTCACACATAAATATATATATATA [CACACA_site6053]”, 8.71 ± 0.45; that for “AAAAAAAAAAAACACACACACACATACCCATACATA [CACACA_site5575]”, 9.98 ± 0.22.
In the case of “ATATATTTGTATAATAGTACGTACAGGCAAAATATA [XGTACX_site7396]”, the “gcPBM binding intensity (ln)” value was 8.99 ± 0.43.
In the case of “TACATTTAAAAAAAAACACACATATATATATATATA [CACACA_site2535]”, the “gcPBM binding intensity (ln)” value amounted to 9.75 ± 0.18.
“ATATATAAATAATGTTGTACGTATTTCAAAAGTATG [XGTACX_site3363]”: the “gcPBM binding intensity (ln)” value worked out at 8.72 ± 0.42.
Next, “TGTATGCTTACATAATGTACGGAAAAATAAAGGCAT [XGTACX_site6923]”: 8.98 ± 0.44; “ATAATAATAATAAAAAGTACAAATTATTATATATAT [XGTACX_site5160]”: 8.85 ± 0.45; “TGCTCTCTCTTGTTGTGTACATAATACAATATATAT [XGTACX_site7427]”: 9.21 ± 0.37.
Consider “ATAATAAGAACTCAGTGTACTATCCTTTGAATTAAC [XGTACX_site8117]”, for which the “gcPBM binding intensity (ln)” value came out at 8.69 ± 0.5.
As for “AACGTCTTTTTTTTTTTTTTTCTTTTTTTTTTTATT [CACACA_negctrl_site303]”, the “gcPBM binding intensity (ln)” value was 8.81 ± 0.48.
The result for “TAATTATTTTCGGTACGTACTAATGTATATATAATT [XGTACX_site3895]” reads 8.71 ± 0.42; that for “TAATAATTTTTTTTTTTTTTTTACGAAAATATGATT [GTGCAC_negctrl_site323]”, 8.19 ± 0.52.
Next, “AATTTTTTTTTTTTGTTGCACTTTTAGAGTTTTAAT [GTGCAC_site9519]”: 8.68 ± 0.46.
Next, “CCTTTAAGCAAAAACACACACACATATTTATTTATA [CACACA_site6294]”: 9.41 ± 0.3; “TAATAAATAGGACACACACACATATTTATATATCAT [CACACA_site6771]”: 9.76 ± 0.2.
With “TATAAAAGTGGACACACACACATATATATATATATA [CACACA_site4673]”, the “gcPBM binding intensity (ln)” value was 9.925 ± 0.035.
For the sequence “ACACATCAAATATAAAAAAAAAATAACTATAAATAA [CACACA_negctrl_site587]”, the “gcPBM binding intensity (ln)” value came out at 8.76 ± 0.53.
Next, “TTGCAAAATTGTTTTATCACAAATATATACTTAATA [CACACA_negctrl_site403]”: 8.38 ± 0.37; TAATTCTTGTAAAATGTGCGCAGTAGATATAGTTTT: 9.04 ± 0.25; “AGATATAAGAAAAGCACACACACACTAGAAAAAAAA [CACACA_site5559]”: 9.92 ± 0.33.
The result for “ATAAAATTATATACGTGTACATATATATATTTATGT [XGTACX_site4653]” reads 8.9 ± 0.43; that for “ATATTTATTCAATCCAGTACATATTATATATTGTAT [XGTACX_site184]”, 8.86 ± 0.41; that for “ATAAAATATCAATACCGTACACAAGCAGGTAAAATA [XGTACX_site3719]”, 9.11 ± 0.35.
Next, “CTTTTTTGTAATAACACACACACAAACAGAAAAAAT [CACACA_site2075]”: 9.48 ± 0.23.
Regarding “ATTAATATTTAGACTTGTACATATATAATATATGTC [XGTACX_site3766]”, the “gcPBM binding intensity (ln)” value stood at 8.88 ± 0.41.
The result for “TTTCTTTTTTAAATTAAAATTTTTTTTTTTTTCGGT [TGCATGCA_negctrl_site52]” reads 8.16 ± 0.58.
Next, “TTATTTCAAAGTTGTTGTACAAAAATATATTTATAA [XGTACX_site5226]”: 8.49 ± 0.53.
The result for “AATTAAAAAGTTTTTAATGTTTTTAATTTTTTCCAC [XGTACX_negctrl_site423]” reads 8.35 ± 0.52; that for “AAAAAAATAATGTACACACACATATATGTTTATATA [CACACA_site6234]”, 9.18 ± 0.38.
As for “TATATAAATTATGTGAGTACATAATTTAGAAGGAAC [XGTACX_site2807]”, the “gcPBM binding intensity (ln)” value worked out at 8.89 ± 0.57.
For the sequence “AAAGGTGTATTTAATACACACGTGTCATTAAAATTG [CACACA_site4508]”, the “gcPBM binding intensity (ln)” value was 8.95 ± 0.29.
On to “TTAAAAAACTATAATACACACCAAAAATATGCACAT [CACACA_site7079]”, for which the “gcPBM binding intensity (ln)” value was determined as 9.02 ± 0.33.
Next, “AATATAAATATAAATTGTACTTAAAAATTTCACGCA [XGTACX_site5234]”: 8.62 ± 0.49; “TTTCGTTGTGTATTTTGTACATATTTTTAATTATAT [XGTACX_site6687]”: 9.02 ± 0.47.
The result for “TCCTTTTGAACCCTTTTTCTCACAAGACCTTTATAT [TGCATGCA_negctrl_site413]” reads 8.59 ± 0.56; that for “TTTTTTTTTTATTCTTCACACATTTCCAATAAAAAA [CACACA_site5601]”, 8.46 ± 0.35.
With “GTTATTATATATATGTGTACTTAAAAATTTTATGTC [XGTACX_site6084]”, the “gcPBM binding intensity (ln)” value was found to be 8.79 ± 0.54.
The result for “TATAACAAAAAAAAATAAAAAATAAAACTATATATA [CACACA_negctrl_site504]” reads 8.5 ± 0.59; that for “AATAAAAAAAAAATAAATTTAATAATAATAATAAAA [CACACA_negctrl_site569]”, 8.34 ± 0.64.
The result for “TGTATATATATTTATGCATGCTGTGTGTATTCTTTT [TGCATGCA_site74]” reads 9.46 ± 0.34; that for “TTTATATATTTTAGGAGTACATTAAATTATACCTTA [XGTACX_site5600]”, 8.3 ± 0.51; that for “AAAAAAAAAAAAAAAACACACAGAAATATATATATA [CACACA_site4611]”, 9.14 ± 0.33.
As for “AAAGAAGGGAAACACACACACACACCCACAAAAAAA [CACACA_site3766]”, the “gcPBM binding intensity (ln)” value was found to be 10.18 ± 0.099.
Next, “TACATACATACATACACACACATATATATATATATA [CACACA_site1944]”: 9.8 ± 0.18; “ATTTTTTCATATTCTACACACGTGAACAAATGAGTC [CACACA_site5635]”: 9.06 ± 0.41; “TATCATATTTTTATATGTACATAACATAAAAAAAAA [XGTACX_site2152]”: 8.31 ± 0.45.
Next, “AACAGACAAAGACACACACACATACATACATACATA [CACACA_site6351]”: 10.1 ± 0.35; “TGATTTGTGCCGATTTGTACACATTTATATATATAT [XGTACX_site2154]”: 9.13 ± 0.35; “TTTTTTTTATGTATCACACATAATTTTTTATTATGA [CACACA_site5534]”: 8.64 ± 0.44.
The result for “AGAAAGAAAATATATACACACAAAAAAAAATATATA [CACACA_site1412]” reads 9.02 ± 0.38; that for “CATCCACAAATATGTACACACATATATAAATATGTA [CACACA_site7407]”, 9.11 ± 0.37; that for “ATAATAACAAGGCGCTGTACTGTACCGTTTTTCATA [XGTACX_site6135]”, 9.02 ± 0.38.
“GACAACTCTTTTCATACACACAAAAAAAAAAAAATA [CACACA_site2361]”: the “gcPBM binding intensity (ln)” value is 8.71 ± 0.42.
Next, “CAATGTTAACATATTACACACATATGTATATATAAT [CACACA_site8878]”: 9.14 ± 0.35.
The result for “GATATATCCTATGTTATTTTTATGGTGTAATTTAGT [XGTACX_negctrl_site112]” reads 8.87 ± 0.37; that for “TCACATATATATTAATGTACATATATTTTTTATGTA [XGTACX_site5125]”, 8.75 ± 0.44.
Next, “ATAAACAGAAAAAAAAAAAAAAAAAAAAAAAAAAAA [CACACA_negctrl_site143]”: 8.05 ± 0.32; “TTTTTTTTCTCACAAAAAATAATTAACAAAAAGGAA [XGTACX_negctrl_site154]”: 8.02 ± 0.49; “GATTTATACAAATATGTACACACTAATTATATATTA [CACACA_site8045]”: 8.97 ± 0.33.
In the case of “TAAAAAAAAAAAAAAAGTACAAAAAAAATATTTTTT [XGTACX_site7941]”, the “gcPBM binding intensity (ln)” value was 8.33 ± 0.58.
Take “ATATGCTATTTACTAGTGCAAAATATTTAAAATATG [GTGCAC_site9517]”: the “gcPBM binding intensity (ln)” value was found to be 8.61 ± 0.36.
As for “TTAATATAAGCAAATACACACACACCGATATATATA [CACACA_site9269]”, the “gcPBM binding intensity (ln)” value turned out to be 9.8 ± 0.26.
Consider “GTTGCACAATGTTACACACACAATATAGATCGTTAA [CACACA_site6717]”, for which the “gcPBM binding intensity (ln)” value stood at 9.22 ± 0.42.
Next, “ATAAAAAAAAAAAATACACACATATATTTATTTATA [CACACA_site6903]”: 8.73 ± 0.49.
Take “TTTATATGGATTTTTTTTTAATATTTCTTTTAATTT [TGCATGCA_negctrl_site361]”: the “gcPBM binding intensity (ln)” value was determined as 8.29 ± 0.47.
Next, “ATATATATATATATATGTACTTATTTATATATTTAT [XGTACX_site7811]”: 9.18 ± 0.57.
